# The supplement of paper PMC11348887
# Several values for one entry are separate records, joined by “and”; a condition that tells them apart may be missing. Equal entries are not always repeated. Structures can show the parent of a compound that is named as a salt. The list shows a part of the results. Cut-off read from the data, not from the text of the source: active = -2 or less and inactive = the rest. Most values come without repeats; read them as rough.
# Test system: hPSC-derived cortical neurons (WA09)
# Assay: nuclei number (viability) z-score; higher = more surviving cells
# Conditions: 5 µM; treatment: days 7-14 after plating, readout day 21
# 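Note: nuclei counted from DAPI counterstain by automated high-content image analysis, four fields per well at ×20 in 384-well plates, with sequential b-score then z-score normalization.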
row,SMILES,nuclei number (z-score)
1,CCC[C@H](N[C@H]1CCc2cc(F)cc(F)c2C1)C(=O)Nc1cn(C(C)(C)CNCC(C)(C)C)cn1,inactive: 0.415
2,CN1C(=O)C(Cc2c[nH]c3ccccc23)NC1=S (stereo unspecified) [Necrostatin-1],inactive: 0.249
3,Cc1cc2c(s1)Nc1ccccc1N=C2N1CCN(C)CC1 [Olanzapine],inactive: -0.212
4,CCn1c(-c2nonc2N)nc2c(C#CC(C)(C)O)ncc(OC[C@H]3CCCNC3)c21,inactive: -1.22
5,NC(=O)CC[C@H](N)C(=O)O [L-Glutamine],inactive: 0.556
6,CCN(CC)CCOc1ccc(Nc2ncc3cc(-c4c(Cl)cccc4Cl)c(=O)n(C)c3n2)cc1,active: -3.32
7,O=S(=O)(O)Oc1ccc(C(c2ccc(OS(=O)(=O)O)cc2)c2ccccn2)cc1 [Sodium Picosulfate],inactive: 0.439
8,OCCOc1ccc(/C(=C(/CCCl)c2ccccc2)c2ccccc2)cc1 [Ospemifene],inactive: -0.274
9,CC(C)OC(=O)C(C)(C)Oc1ccc(C(=O)c2ccc(Cl)cc2)cc1 [Fenofibrate],inactive: -0.189
10,CNC(=O)c1ccc(Nc2ncc(C(F)(F)F)c(NCc3nccnc3N(C)S(C)(=O)=O)n2)cc1,inactive: -0.895
11,Cc1ccc(NC(=O)C2(c3ccc4c(c3)OC(F)(F)O4)CC2)nc1-c1cccc(C(=O)O)c1 [VX-809 (Lumacaftor)],inactive: 0.191
12,Cn1cc(/C=C2\C(=O)Nc3cccnc32)c2ccccc21,inactive: -1.17
13,CNC(=O)c1cc(Oc2ccc3nc(N[C@@H]4CCCC[C@H]4O)sc3c2)ccn1,inactive: -0.275
14,CC(C)(C)c1ccc(S(=O)(=O)/C=C/C#N)cc1,inactive: -1.75
15,CC(=O)c1c(C)c2cnc(Nc3ccc(N4CCNCC4)cn3)nc2n(C2CCCC2)c1=O,inactive: -1.05 and inactive: -0.939
16,CCN1C[C@H](C)n2c(c(O)c3c(=O)n(Cc4ccc(F)c(Cl)c4)nc(C(=O)NC)c32)C1=O,inactive: 1.94
17,CCCNC(=O)Nc1ccc(Oc2ncnc3cc(OC)c(OC)cc23)cc1Cl,inactive: -0.339
18,Cc1cc(O)cc(C)c1Cl [Chloroxylenol],inactive: 0.112
19,Cc1cn(-c2cc(NC(=O)c3ccc(C)c(Nc4nccc(-c5cccnc5)n4)c3)cc(C(F)(F)F)c2)cn1 [Nilotinib (AMN-107)],inactive: -0.237
20,NC(=O)c1ccc(-c2nc(-c3ccccn3)c(-c3ccc4c(c3)OCO4)[nH]2)cc1,inactive: 4.06
21,C[C@@H](O[C@H]1OCCN(Cc2n[nH]c(=O)[nH]2)[C@H]1c1ccc(F)cc1)c1cc(C(F)(F)F)cc(C(F)(F)F)c1 [Aprepitant],inactive: -0.555
22,Oc1cccc(O)c1 [Resorcinol],inactive: 0.393
23,COc1ccc(C2=N[C@@H](c3ccc(Cl)cc3)[C@@H](c3ccc(Cl)cc3)N2C(=O)N2CCNC(=O)C2)c(OC(C)C)c1 [Nutlin-3a],active: -3.66
24,COc1ccc(C2=N[C@@H](c3ccc(Cl)cc3)[C@@H](c3ccc(Cl)cc3)N2C(=O)N2CCNC(=O)C2)c(OC(C)C)c1 [Nutlin-3],inactive: -1.03

row,SMILES,nuclei number (z-score)
1,CN/C(=N\CCSCc1nc[nH]c1C)NC#N [Cimetidine],inactive: -0.642
2,"c1ccc(C2CN3CCSC3=N2)cc1 (single isomer, unassigned; (-)) [(-)-Tetramisole]",inactive: -0.53
3,C/C(=C\C(=O)OCCCCCCCCC(=O)O)C[C@@H]1OC[C@H](C[C@@H]2O[C@H]2[C@@H](C)[C@H](C)O)[C@@H](O)[C@H]1O [Mupirocin],inactive: 1.06
4,O=C(O)c1cc(/N=N/c2ccc(S(=O)(=O)Nc3ccccn3)cc2)ccc1O [Sulfasalazine],inactive: 0.228
5,NC(=O)c1ccc(I)c([N+](=O)[O-])c1 [Iniparib (BSI-201)],inactive: -1.58
6,C#C[C@]1(O)CC[C@H]2[C@@H]3CCC4=CC(=O)CC[C@@H]4[C@H]3C(=C)C[C@@]21CC [Etonogestrel],inactive: -0.0564
7,CCOc1ccc2nc(S(N)(=O)=O)sc2c1 [Ethoxzolamide],inactive: 0.52
8,c1coc(CNc2ncnc3[nH]cnc23)c1 [Kinetin],inactive: -0.103
9,CS(=O)(=O)c1ccc(-c2nnc(/C=C/c3nnc(-c4ccc(C#N)cc4)o3)n2-c2ccccc2Cl)nc1,inactive: 1.25
10,C[C@]12CCC3=C4CCC(=O)C=C4CC[C@H]3[C@@H]1CC[C@@]2(O)CC#N [Dienogest],inactive: 1.11
11,C[C@@H]1C[C@H]2[C@@H]3CCC4=CC(=O)C=C[C@]4(C)[C@@]3(Cl)[C@@H](O)C[C@]2(C)[C@@]1(OC(=O)c1ccco1)C(=O)CCl [Mometasone furoate],inactive: 0.915
12,CCOC(=O)[C@H](CCc1ccccc1)N[C@@H](C)C(=O)N1C(=O)N(C)C[C@H]1C(=O)O [Imidapril HCl],inactive: -0.205
13,O=C(O)c1ccccc1O [Salicylic acid],inactive: 0.0223
14,COc1cc2ncnc(Nc3cccc(Cl)c3)c2cc1OC [AG-1478 (Tyrphostin AG-1478)],inactive: 0.184
15,Cc1[nH]nc(C(F)(F)F)c1Cc1sc2c(c1C(=O)N1C[C@](C)(O)CO1)c(=O)n(C)c(=O)n2C(C)C,active: -4.49
16,O=c1oc2cc(O)ccc2s1 [Tioxolone],inactive: 0.375
17,Cc1ccccc1C(C(=O)NC1CCCCC1)N(C(=O)Cn1ccnc1C)c1cccc(F)c1 (stereo unspecified),inactive: -0.0338
18,O=C(O)c1cc(=O)[nH]c(=O)[nH]1 [Orotic acid (6-Carboxyuracil)],inactive: -0.878
19,O=c1n(CCCN2CCN(c3cccc(Cl)c3)CC2)nc2ccccn12 [Trazodone HCl],inactive: 0.295
20,CC1(C)S[C@@H]2[C@H](NC(=O)[C@H](N)c3ccccc3)C(=O)N2[C@H]1C(=O)O [Ampicillin Trihydrate],inactive: -1.18
21,CC1(C)S[C@@H]2[C@H](NC(=O)[C@H](N)c3ccccc3)C(=O)N2[C@H]1C(=O)O [Ampicillin sodium],inactive: 0.829
22,O=C(NC[C@H](O)CO)c1ccncc1Nc1ccc(I)cc1F,inactive: -0.124
23,Cc1ccc(-n2nc(C(C)(C)C)cc2NC(=O)NCc2cc(F)ccc2Oc2ccc3c(cnn3CCO)c2)cc1 [Pexmetinib (ARRY-614)],inactive: 0.341
24,Oc1ccc(-c2nc(-c3ccc(F)cc3)c(-c3ccncc3)[nH]2)cc1,inactive: 0.0679

row,SMILES,nuclei number (z-score)
1,O=C(Nc1ccc(S(=O)(=O)Nc2ccccc2Cl)c(Cl)c1)c1ccccn1,inactive: 5.08
2,Cc1ccc(C(=O)Nc2ccc(CN3CCN(C)CC3)c(C(F)(F)F)c2)cc1C#Cc1cnc2[nH]ncc2c1,active: -3.86
3,Cc1ncc([N+](=O)[O-])n1CC(C)O (stereo unspecified) [Secnidazole],inactive: 0.497
4,OCCn1cc(-c2cnc3nnn(Cc4ccc5ncccc5c4)c3n2)cn1,inactive: 0.686
5,C[C@]12CCC(=O)C=C1[C@@H]1C[C@@H]1[C@H]1[C@@H]3[C@@H]4C[C@@H]4[C@@]4(CCC(=O)O4)[C@@]3(C)CC[C@@H]12 [Drospirenone],inactive: 0.776
6,COc1ccc2cc([C@H](C)C(=O)O)ccc2c1 [Naproxen],active: -2.12
7,N#Cc1cc(CN2CCC(Nc3ncnc4sc(Cl)cc34)CC2)ccc1F,inactive: -0.477
8,CC(=O)O/N=C1/C(c2c(O)[nH]c3cc(Br)ccc23)=Nc2ccccc21 [BIO-acetoxime],inactive: -0.454
9,CCCN(CCC)CCc1cccc2c1CC(=O)N2 [Ropinirole HCl],inactive: 0.781
10,O[C@H]1[C@H](O)[C@@H](O)[C@H](O)[C@@H](O)[C@H]1O [i-Inositol],inactive: -0.617
11,COc1cccc2c1C(=O)c1c(O)c3c(c(O)c1C2=O)C[C@@](O)(C(=O)CO)C[C@@H]3O[C@H]1C[C@H](N)[C@@H](O)[C@H](C)O1 [Epirubicin HCl],active: -3.92
12,CN1CCC(Nc2nc(Nc3ccc(Oc4ccccc4)cc3)c3c(=O)[nH]cc(Br)c3n2)CC1,active: -5.46
13,CC(=O)O[C@H]1C(=O)[C@@]2(C)[C@H]([C@H](OC(=O)c3ccccc3)[C@]3(O)C[C@H](OC(=O)[C@H](O)[C@@H](NC(=O)c4ccccc4)c4ccccc4)C(C)=C1C3(C)C)[C@]1(OC(C)=O)CO[C@@H]1C[C@@H]2O [Paclitaxel],inactive: -0.887
14,NC(=O)c1cccc(-c2cccc(OC(=O)NC3CCCCC3)c2)c1,inactive: 0.506
15,CC(C)C[C@H](NC(=O)[C@H](Cc1ccccc1)C[C@@H](O)[C@H](Cc1ccccc1)NC(=O)OC(C)(C)C)C(=O)N[C@@H](Cc1ccccc1)C(N)=O,inactive: 0.852
16,COc1cc2nc(N3CCCC3)nc(NCCCCCN3CCCC3)c2cc1OC,active: -5.46
17,NC(=O)c1cnccn1 [Pyrazinamide],inactive: -0.376
18,Nc1nc(N)c(N=O)c(OCC2CCCCC2)n1,inactive: 3.93
19,Cn1cnc2c(F)c(Nc3ccc(Br)cc3F)c(C(=O)NOCCO)cc21,inactive: -0.328
20,C#Cc1cccc(Nc2ncnc3cc(OCCOC)c(OCCO)cc23)c1,inactive: 0.0333
21,CCCCCCCCCCCCCCCCn1cc[n+](Cc2ccccc2)c1C,active: -4.62
22,Nc1ccc(-c2ccc3ncc4ccc(=O)n(-c5cccc(C(F)(F)F)c5)c4c3c2)cn1 [Torin 2],inactive: -0.355
23,CSc1nc2cc(Cl)c(Oc3cccc(Cl)c3Cl)cc2[nH]1 [Triclabendazole],inactive: -0.604
